AUC and IC50 data for 69 cell lines are collected here from the supplement of paper PMC4967469.

IC50 is the fitted dose that halves viability relative to control wells, and lower means more sensitive; a fit beyond the top or the lowest dose is shown as a bound at that dose. The AUC spans the tested range (256-fold, ending at the top dose) of the same fit; it is 1 without any effect and falls as sensitivity rises. A top dose marked as inferred was calculated from the reported fits. An entry number marks a drug with two screens in the source, which often give different values.

Compound in the first test: NC(=O)[C@@H](CCC(F)(F)F)N(Cc1ccc(-c2ncon2)cc1F)S(=O)(=O)c1ccc(Cl)cc1 [BMS-708163]
Description: Viability of human cancer cell lines after 72 h of drug (GDSC screen). The note with it: screen: GDSC drug entry 205; top dose inferred. On the procedure: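 Human cancer cell lines in 384-well plates, medium with 10% serum, drug for 72 h over a 256-fold dose range (nine 2-fold or five 4-fold steps up to the top dose). Adherent lines were fixed and stained with the nucleic acid dye Syto60, suspension lines read with resazurin; signal relative to control wells, capped at 0 and 100%. One two-parameter sigmoid per drug and line, fitted in a mixed model over all curves with the slope shared within a line.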
Regarding “OV-56 (ovary, adherent, top dose 10.24 µM)”, the AUC came out at 0.987 and the IC50 is above 10.2 µM.

Consider “OV-90 (ovary, adherent, top dose 10.24 µM)”, for which the AUC was 0.98 and the IC50 was above 10.2 µM.

Take “OVCA420 (ovary, adherent, top dose 10.24 µM)”: the AUC worked out at 0.982 and the 50% inhibitory concentration (IC50) was above 10.2 µM.

As for “OVCA433 (ovary, adherent, top dose 10.24 µM)”, the AUC came out at 0.984 and the IC50 is above 10.2 µM.

As for “OVCAR-3 (ovary, adherent, top dose 10.24 µM)”, the AUC came to 0.987 and the IC50 is above 10.2 µM.

Take “OVCAR-4 (ovary, adherent, top dose 10.24 µM)”: the AUC worked out at 0.97 and the 50% inhibitory concentration (IC50) was above 10.2 µM.

Consider “OVCAR-5 (ovary, adherent, top dose 10.24 µM)”, for which the AUC is 0.974 and the 50% inhibitory concentration (IC50) was above 10.2 µM.

Turning to “OVCAR-8 (ovary, adherent, top dose 10.24 µM)”, the AUC was 0.99 and the half-inhibitory concentration (IC50) is above 10.2 µM.

Regarding “OVISE (ovary, adherent, top dose 10.24 µM)”, the AUC came to 0.958 and the IC50 was above 10.2 µM.

In the case of “OVK-18 (ovary, adherent, top dose 10.24 µM)”, the AUC worked out at 0.986 and the concentration for half-maximal inhibition (IC50) was above 10.2 µM.

Turning to “OVKATE (ovary, adherent, top dose 10.24 µM)”, the AUC is 0.972 and the IC50 was above 10.2 µM.

“OVMIU (ovary, adherent, top dose 10.24 µM)”: the AUC turned out to be 0.971 and the half-inhibitory concentration (IC50) is above 10.2 µM.

On to “OVTOKO (ovary, adherent, top dose 10.24 µM)”, for which the AUC is 0.976 and the half-maximal inhibitory concentration (IC50) is above 10.2 µM.

For “P12-ICHIKAWA (T-cell lymphoblastic leukaemia, suspension, top dose 2.56 µM)”, the AUC came to 0.994 and the IC50 was above 2.56 µM.

“P30-OHK (lymphoblastic leukaemia, suspension, top dose 10.24 µM)”: the AUC came out at 0.893 and the IC50 was determined as 8.62 µM.

For “P31-FUJ (acute myeloid leukaemia, suspension, top dose 10.24 µM)”, the AUC was determined as 0.996 and the IC50 is above 10.2 µM.

Turning to “P32-ISH (Burkitt lymphoma, suspension, top dose 10.24 µM)”, the AUC turned out to be 0.995 and the IC50 was above 10.2 µM.

Turning to “PA-1 (ovary, adherent, top dose 10.24 µM)”, the AUC came out at 0.993 and the 50% inhibitory concentration (IC50) is above 10.2 µM.

For the cell line “PA-TU-8902 (pancreas, adherent, top dose 10.24 µM)”, the AUC is 0.983 and the IC50 is above 10.2 µM.

“PA-TU-8988T (pancreas, adherent, top dose 10.24 µM)”: the AUC came to 0.987 and the IC50 was above 10.2 µM.

“PANC-02-03 (pancreas, adherent, top dose 10.24 µM)”: the AUC came out at 0.983 and the IC50 is above 10.2 µM.

With “PANC-03-27 (pancreas, adherent, top dose 10.24 µM)”, the AUC is 0.986 and the IC50 was above 10.2 µM.

Turning to “PANC-04-03 (pancreas, adherent, top dose 10.24 µM)”, the AUC stood at 0.978 and the 50% inhibitory concentration (IC50) is above 10.2 µM.

For “PANC-08-13 (pancreas, adherent, top dose 10.24 µM)”, the AUC is 0.977 and the 50% inhibitory concentration (IC50) is above 10.2 µM.

For “PANC-10-05 (pancreas, adherent, top dose 10.24 µM)”, the AUC is 0.98 and the IC50 was above 10.2 µM.

“PC-3 (prostate, adherent, top dose 10.24 µM)”: the AUC is 0.974 and the IC50 is above 10.2 µM.

“PC-3 [JPC-3] (lung adenocarcinoma, adherent, top dose 10.24 µM)”: the AUC amounted to 0.977 and the IC50 is above 10.2 µM.

For the cell line “PC-14 (lung adenocarcinoma, adherent, top dose 10.24 µM)”, the AUC was found to be 0.987 and the IC50 is above 10.2 µM.

In the case of “PCI-4B (head and neck, adherent, top dose 10.24 µM)”, the AUC was 0.987 and the half-maximal inhibitory concentration (IC50) was above 10.2 µM.

Take “PCI-6A (head and neck, adherent, top dose 10.24 µM)”: the AUC is 0.988 and the IC50 was above 10.2 µM.

In the case of “PCI-15A (head and neck, adherent, top dose 10.24 µM)”, the AUC stood at 0.987 and the IC50 is above 10.2 µM.

For the cell line “PCI-30 (head and neck, adherent, top dose 10.24 µM)”, the AUC was 0.985 and the IC50 is above 10.2 µM.

Take “PCI-38 (head and neck, adherent, top dose 10.24 µM)”: the AUC worked out at 0.985 and the half-maximal inhibitory concentration (IC50) is above 10.2 µM.

For the cell line “PE/CA-PJ15 (head and neck, adherent, top dose 10.24 µM)”, the AUC is 0.986 and the 50% inhibitory concentration (IC50) was above 10.2 µM.

In the case of “PEO1 (ovary, adherent, top dose 10.24 µM)”, the AUC is 0.984 and the IC50 is above 10.2 µM.

In the case of “PF-382 (T-cell lymphoblastic leukaemia, suspension, top dose 2.56 µM)”, the AUC was 0.985 and the 50% inhibitory concentration (IC50) was above 2.56 µM.

Consider “PFSK-1 (medulloblastoma, adherent, top dose 10.24 µM)”, for which the AUC came to 0.986 and the IC50 is above 10.2 µM.

On to “PL4 (pancreas, adherent, top dose 10.24 µM)”, for which the AUC came out at 0.986 and the half-inhibitory concentration (IC50) is above 10.2 µM.

Turning to “PL18 (pancreas, adherent, top dose 10.24 µM)”, the AUC is 0.988 and the half-inhibitory concentration (IC50) was above 10.2 µM.

Turning to “PL-21 (acute myeloid leukaemia, suspension, top dose 10.24 µM)”, the AUC is 0.982 and the concentration for half-maximal inhibition (IC50) is above 10.2 µM.

Take “PSN1 (pancreas, adherent, top dose 10.24 µM)”: the AUC is 0.991 and the half-inhibitory concentration (IC50) was above 10.2 µM.

Take “QGP-1 (pancreas, adherent, top dose 10.24 µM)”: the AUC worked out at 0.977 and the IC50 is above 10.2 µM.

With “QIMR-WIL (acute myeloid leukaemia, suspension, top dose 10.24 µM)”, the AUC is 0.987 and the concentration for half-maximal inhibition (IC50) is above 10.2 µM.

For the cell line “RC-K8 (B-cell lymphoma, suspension, top dose 10.24 µM)”, the AUC turned out to be 0.993 and the concentration for half-maximal inhibition (IC50) was above 10.2 µM.

For the cell line “RCC10RGB (kidney, adherent, top dose 10.24 µM)”, the AUC turned out to be 0.957 and the half-inhibitory concentration (IC50) was above 10.2 µM.

Take “RCC-AB (kidney, adherent, top dose 10.24 µM)”: the AUC was 0.967 and the IC50 is above 10.2 µM.

As for “RCC-ER (kidney, adherent, top dose 10.24 µM)”, the AUC came to 0.984 and the IC50 was above 10.2 µM.

Consider “RCC-FG2 (kidney, adherent, top dose 10.24 µM)”, for which the AUC amounted to 0.981 and the IC50 is above 10.2 µM.

Turning to “RCC-JF (kidney, adherent, top dose 10.24 µM)”, the AUC came out at 0.981 and the IC50 is above 10.2 µM.

For “RCC-JW (kidney, adherent, top dose 10.24 µM)”, the AUC came to 0.936 and the IC50 is above 10.2 µM.

For “RCC-MF (kidney, adherent, top dose 10.24 µM)”, the AUC came to 0.977 and the IC50 was above 10.2 µM.

In the case of “RCM-1 (large intestine, adherent, top dose 10.24 µM)”, the AUC is 0.984 and the 50% inhibitory concentration (IC50) is above 10.2 µM.

“RD (rhabdomyosarcoma, adherent, top dose 10.24 µM)”: the AUC was 0.985 and the concentration for half-maximal inhibition (IC50) was above 10.2 µM.

As for “REH (B-cell leukaemia, suspension, top dose 10.24 µM)”, the AUC turned out to be 0.971 and the IC50 is above 10.2 µM.

With “RERF-GC-1B (stomach, adherent, top dose 10.24 µM)”, the AUC came to 0.981 and the concentration for half-maximal inhibition (IC50) is above 10.2 µM.

Still in this test, the particulars now being: top dose 5 µM; screen: GDSC drug entry 1072; top dose inferred.
Turning to OV-90 (ovary, adherent), the AUC is 0.976 and the IC50 was above 5 µM.

As to OVCA420 (ovary, adherent), the AUC is 0.964 and the IC50 is above 5 µM.

OVCA433 (ovary, adherent): the AUC stood at 0.92 and the IC50 is above 5 µM.

With OVK-18 (ovary, adherent), the AUC stood at 0.986 and the IC50 was above 5 µM.

With PEO1 (ovary, adherent), the AUC came out at 0.983 and the IC50 was above 5 µM.

Take PWR-1E (prostate, adherent): the AUC was 0.984 and the IC50 was above 5 µM.

QGP-1 (pancreas, adherent): the AUC amounted to 0.935 and the 50% inhibitory concentration (IC50) was above 5 µM.

As for RCC-AB (kidney, adherent), the AUC turned out to be 0.952 and the 50% inhibitory concentration (IC50) is above 5 µM.

On to RCC-ER (kidney, adherent), for which the AUC was found to be 0.982 and the 50% inhibitory concentration (IC50) was above 5 µM.

As for RCC-FG2 (kidney, adherent), the AUC worked out at 0.976 and the IC50 is above 5 µM.

For RCC-JF (kidney, adherent), the AUC turned out to be 0.969 and the half-inhibitory concentration (IC50) is above 5 µM.

RCC-JW (kidney, adherent): the AUC was 0.985 and the half-inhibitory concentration (IC50) is above 5 µM.

In the case of RCC-MF (kidney, adherent), the AUC came to 0.98 and the IC50 is above 5 µM.

In the case of RCH-ACV (B-cell leukaemia, suspension), the AUC worked out at 0.991 and the half-maximal inhibitory concentration (IC50) is above 5 µM.

A word on the IC50: it is the concentration that gives 50% inhibition.
